IC50 is the fitted dose that halves viability relative to control wells, and lower means more sensitive; where the fit passes the top or lowest dose, that dose stands as a limit. AUC sums up the same curve from the lowest dose to the 256-fold higher top dose; values near 1 show little effect. For part of these data: A top dose marked as inferred was calculated from the reported fits. For part of these data: Drugs with an entry number were screened twice under separate entries, and the two screens often disagree.
How the values were obtained:
Experiment in all cases: Viability of human cancer cell lines after 72 h of drug (GDSC screen)
Docetaxel = compound: CC(=O)O[C@@]12CO[C@@H]1C[C@H](O)[C@@]1(C)C(=O)[C@H](O)C3=C(C)[C@@H](OC(=O)[C@H](O)[C@@H](NC(=O)OC(C)(C)C)c4ccccc4)C[C@@](O)([C@@H](OC(=O)c4ccccc4)[C@H]21)C3(C)C [Docetaxel]; details: top dose 0.0125 µM
Protocol: (§1)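 Human cancer cell lines in 384-well plates, medium with 10% serum, drug for 72 h over a 256-fold dose range (nine 2-fold or five 4-fold steps up to the top dose). Adherent lines were fixed and stained with the nucleic acid dye Syto60, suspension lines read with resazurin; signal relative to control wells, capped at 0 and 100%. One two-parameter sigmoid per drug and line, fitted in a mixed model over all curves with the slope shared within a line.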

JQ1 = compound: Cc1sc2c(c1C)C(c1ccc(Cl)cc1)=N[C@@H](CC(=O)OC(C)(C)C)c1nnc(C)n1-2 [JQ1]
Protocol: as §1

Belinostat = compound: O=C(/C=C/c1cccc(S(=O)(=O)Nc2ccccc2)c1)NO [Belinostat]; details: top dose 20 µM; top dose inferred
Protocol: as §1

SB-715992 = compound: Cc1ccc(C(=O)N(CCCN)[C@@H](c2nc3cc(Cl)ccc3c(=O)n2Cc2ccccc2)C(C)C)cc1 [SB-715992]; details: top dose 0.128 µM; top dose inferred
Protocol: as §1

JNJ-26854165 = compound: c1ccc2c(CCNc3ccc(Nc4ccncc4)cc3)c[nH]c2c1 [JNJ-26854165]; details: top dose 10 µM
Protocol: as §1

AMG-706 = compound: CC1(C)CNc2cc(NC(=O)c3cccnc3NCc3ccncc3)ccc21 [AMG-706]; details: top dose 2 µM; top dose inferred
Protocol: as §1

NSC-207895 = compound: CN1CCN(c2ccc([N+](=O)[O-])c3no[n+]([O-])c23)CC1 [NSC-207895]; details: top dose 20 µM; top dose inferred
Protocol: as §1

JNK Inhibitor VIII = compound: CCOc1nc(NC(=O)Cc2cc(OC)ccc2OC)cc(N)c1C#N [JNK Inhibitor VIII]; details: top dose 10 µM; top dose inferred
Protocol: as §1

FTI-277 = compound: COC(=O)[C@H](CCSC)NC(=O)c1ccc(NC[C@@H](N)CS)cc1-c1ccccc1 [FTI-277]; details: top dose 1.024 µM; top dose inferred
Protocol: as §1

YM155 = compound: COCC[n+]1c2c(n(Cc3cnccn3)c1C)C(=O)c1ccccc1C2=O [YM155]; details: top dose 5.12 µM
Protocol: as §1

OSI-906 = compound: C[C@]1(O)C[C@@H](c2nc(-c3ccc4ccc(-c5ccccc5)nc4c3)c3c(N)nccn32)C1 [OSI-906]; details: top dose 2.56 µM; top dose inferred
Protocol: as §1

[1] = top dose 1 µM, screen: GDSC drug entry 1218, top dose inferred
[2] = top dose 2.56 µM, screen: GDSC drug entry 163

| Cell Line | AUC (Docetaxel) | IC50 (Docetaxel) | AUC (JQ1; [1]) | IC50 (JQ1; [1]) | AUC (JQ1; [2]) | IC50 (JQ1; [2]) | AUC (Belinostat) | IC50 (Belinostat) | AUC (SB-715992) | IC50 (SB-715992) | AUC (JNJ-26854165) | IC50 (JNJ-26854165) | AUC (AMG-706) | IC50 (AMG-706) | AUC (NSC-207895) | IC50 (NSC-207895) | AUC (JNK Inhibitor VIII) | IC50 (JNK Inhibitor VIII) | AUC (FTI-277) | IC50 (FTI-277) | AUC (YM155) | IC50 (YM155) | AUC (OSI-906) | IC50 (OSI-906) |
| --- | --- | --- | --- | --- | --- | --- | --- | --- | --- | --- | --- | --- | --- | --- | --- | --- | --- | --- | --- | --- | --- | --- | --- | --- |
| COLO-205 (large intestine, suspension) | 0.932 | > 0.0125 µM | 0.82 | 0.562 µM | 0.46 | 0.125 µM | 0.462 | 0.988 µM | 0.692 | 0.0274 µM | 0.966 | > 10 µM | 0.987 | > 2 µM | 0.98 | > 20 µM | 0.987 | > 10 µM | 0.977 | > 1.02 µM | 0.078 | < 0.02 µM | 0.412 | 0.092 µM |
| COLO-678 (large intestine, semi-adherent) | 0.916 | > 0.0125 µM | 0.982 | > 1 µM | 0.834 | 2.41 µM | 0.709 | 5.85 µM | 0.983 | > 0.128 µM | 0.934 | > 10 µM | 0.985 | > 2 µM | 0.984 | > 20 µM | 0.984 | > 10 µM | 0.963 | > 1.02 µM | 0.307 | 0.0779 µM | 0.974 | > 2.56 µM |
| COLO-679 (melanoma, adherent) | 0.722 | 0.00364 µM | 0.977 | > 1 µM | 0.353 | 0.0594 µM | 0.766 | 8.27 µM | 0.919 | > 0.128 µM | 0.842 | 8.33 µM | 0.984 | > 2 µM | 0.98 | > 20 µM | 0.984 | > 10 µM | 0.91 | > 1.02 µM | 0.165 | 0.0258 µM | 0.864 | > 2.56 µM |
| COLO-680N (oesophagus, adherent) | 0.838 | 0.0108 µM | 0.985 | > 1 µM | 0.753 | 0.999 µM | 0.986 | > 20 µM | 0.915 | > 0.128 µM | 0.958 | > 10 µM | 0.982 | > 2 µM | 0.981 | > 20 µM | 0.982 | > 10 µM | 0.93 | > 1.02 µM | 0.986 | > 5.12 µM | 0.906 | > 2.56 µM |
| CP50-MEL-B (melanoma, adherent) | 0.77 | 0.0047 µM | 0.984 | > 1 µM | 0.818 | 1.42 µM | 0.471 | 1.04 µM | 0.958 | > 0.128 µM | 0.859 | 8.17 µM | 0.971 | > 2 µM | 0.867 | 17.6 µM | 0.974 | > 10 µM | 0.988 | > 1.02 µM | 0.034 | < 0.02 µM | 0.981 | > 2.56 µM |
| CS1 (bone, adherent) | 0.692 | 0.0029 µM | 0.97 | > 1 µM | 0.818 | 1.67 µM | 0.514 | 1.37 µM | 0.709 | 0.0336 µM | 0.759 | 3.88 µM | 0.955 | > 2 µM | 0.87 | > 20 µM | 0.959 | > 10 µM | 0.974 | > 1.02 µM | 0.047 | < 0.02 µM | 0.909 | > 2.56 µM |
| Ca9-22 (head and neck, adherent) | 0.418 | 0.000474 µM | 0.986 | > 1 µM | 0.453 | 0.121 µM | 0.258 | 0.271 µM | 0.619 | 0.0165 µM | 0.917 | > 10 µM | 0.977 | > 2 µM | 0.944 | > 20 µM | 0.972 | > 10 µM | 0.918 | > 1.02 µM | 0.055 | < 0.02 µM | 0.965 | > 2.56 µM |
| Ca-Ski (cervix, adherent) | 0.464 | 0.000617 µM | 0.686 | 0.222 µM | 0.513 | 0.175 µM | 0.333 | 0.404 µM | 0.572 | 0.0129 µM | 0.826 | 7.06 µM | 0.976 | > 2 µM | 0.845 | 17.2 µM | 0.962 | > 10 µM | 0.968 | > 1.02 µM | 0.032 | < 0.02 µM | 0.946 | > 2.56 µM |
| CaR-1 (large intestine, adherent) | 0.701 | 0.00385 µM | 0.975 | > 1 µM | 0.854 | > 2.56 µM | 0.527 | 1.53 µM | 0.904 | > 0.128 µM | 0.928 | > 10 µM | 0.97 | > 2 µM | 0.96 | > 20 µM | 0.977 | > 10 µM | 0.959 | > 1.02 µM | 0.048 | < 0.02 µM | 0.971 | > 2.56 µM |
| Capan-2 (pancreas, adherent) | 0.927 | > 0.0125 µM | 0.922 | > 1 µM | 0.943 | > 2.56 µM | 0.944 | > 20 µM | 0.976 | > 0.128 µM | 0.925 | > 10 µM | 0.981 | > 2 µM | 0.818 | 14.5 µM | 0.975 | > 10 µM | 0.911 | > 1.02 µM | 0.248 | 0.0506 µM | 0.852 | > 2.56 µM |
| DAN-G (pancreas, adherent) | 0.89 | 0.0113 µM | 0.991 | > 1 µM | 0.949 | > 2.56 µM | 0.496 | 1.22 µM | 0.96 | > 0.128 µM | 0.942 | > 10 µM | 0.992 | > 2 µM | 0.99 | > 20 µM | 0.976 | > 10 µM | 0.989 | > 1.02 µM | 0.02 | < 0.02 µM | 0.93 | > 2.56 µM |

— the supplement of paper PMC4967469
